The campaign covered roughly 46,000 compounds. About 60 (0.1%) were called active. Not shown: some 3% with an inconclusive outcome. The call rests on the fitted dose curve; in most records, active means well fitted inhibition curve with a large enough effect; inconclusive means small, poorly fitted or top-dose-only effect; inactive means no such curve, though single readings can be large or run the other way. This is one part of the list.

The assay can be described thus: Primary qHTS assay for Inhibitors of ovarian cancer metastasis using an organotypic tumor microenvironment (TME) model. Further: nearly all actives have a fitted effect of over 65% in size.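 On activity change, negative = inhibition: plate controls were DMSO wells for no effect and tomatine positive control wells for full effect.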 The settings on record: SKOV3ip1-GFP adhesion/invasion on 3D omental model, fluorescence; series mostly up to 45.8 µM; activity change, negative = inhibition: at the top concentration. The gist of the method:
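qHTS, 4-pt dose (0.36-46 umol/L); SKOV3ip1-GFP, 1,200 cells/well, no FBS; primary omental fibroblast/mesothelial co-culture 48 h pre-grown; 2 h RT + 16 h 37 C; PBS wash, 4% PFA; GFP count 488/509 nm.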
(In qHTS, concentration-response curves come from the screen itself.)
In the case of `COc1ccccc1N1CCN(c2nc3c(S(=O)(=O)c4ccccc4)nnn3c3ccc(Cl)cc23)CC1`, the “activity change, negative = inhibition” value was inactive: 1.32%.
As to `CCOC(=O)c1scc(-c2ccccc2)c1S(=O)(=O)Nc1ccccc1OC`, the “activity change, negative = inhibition” value was inactive: 2.19%.
Consider `N#Cc1nc(-c2ccc(COc3ccc(Cl)cc3)o2)oc1N1CCCCC1`, for which the “activity change, negative = inhibition” value was inactive: 0.0826%.
As to `COc1ccc(CNS(=O)(=O)c2ccc(C(=O)N(C)C)s2)cc1`, the outcome was inactive.
Turning to `Cc1ccc(CNc2nc(-c3ccco3)nn2C(=O)c2ccccc2[N+](=O)[O-])cc1`, the “activity change, negative = inhibition” value is inactive: 10.9%.
`Cc1ccc2c(=O)c(C(=O)c3ccccc3)cn(CC(=O)NCc3ccccc3)c2n1`: the “activity change, negative = inhibition” value is inactive: 2.76%.
In the case of `CCOc1ccc(NC(=O)CSc2ncc(S(=O)(=O)c3ccc(F)c(C)c3)c(=O)[nH]2)cc1`, the compound was classed as inactive.
With `CCNc1cc(NC2CCC(O)CC2)nc(Nc2ccc3c(ccn3Cc3ccccc3)c2)n1` (configuration not stated), the “activity change, negative = inhibition” value was inactive: -6.8%.
Consider `CC(C)OCCCNC(=O)c1cn(C)c2ccc(S(=O)(=O)N(C)C3CCCCC3)cc2c1=O`, for which the “activity change, negative = inhibition” value is inactive: 0.0783%.
For the compound `COc1ccc(S(=O)(=O)N2CCC(Oc3cccc(C(F)(F)F)c3)CC2)cc1OC`, the “activity change, negative = inhibition” value was inactive: 5.84%.
Turning to `COc1ccc(N2CC(C(=O)NCCS(=O)(=O)N3CCN(c4ccccc4)CC3)CC2=O)cc1` (configuration not stated), the “activity change, negative = inhibition” value is inactive: 3.73%.
For `Cc1ccc(C)c(NC(=O)CSc2nc3nccnc3c(=O)n2CCc2c[nH]c3ccccc23)c1`, the result was inactive.
With `Cc1ccc(-n2c(=O)c3c(C)c(C(=O)N(C)C)sc3n(CC(=O)N(C)c3ccccc3)c2=O)cc1C`, the “activity change, negative = inhibition” value was inactive: -2.06%.
On to `Cc1ccc2occ(-c3cc(-c4ccccc4)nc4c3COc3ccccc3-4)c(=O)c2c1`, for which the compound was classed as inactive.
Regarding `CCOC(=O)c1cc(-c2ccccc2)n(CCCC(=O)Nc2ccc(C)c(Cl)c2)c1C`, the “activity change, negative = inhibition” value is inactive: -4.15%.
Turning to `CN(CC(=O)Nc1ccc(OC(F)(F)F)cc1)S(=O)(=O)c1ccc2c(c1)CCC(=O)N2`, the “activity change, negative = inhibition” value is inactive: 2.05%.
For `CCc1cccc(NC(=O)c2cnc(N3CCOCC3)c3ccccc23)c1`, the compound was called inactive.
Regarding `Cc1c(C(=O)N2CCCC2)oc2c1-c1nn(CC(=O)NCc3ccc(OC(C)C)cc3)cc1CC2`, the “activity change, negative = inhibition” value was inactive: -20.9%.
For the compound `Cc1cccc(NC(=O)CCn2cnnn2)c1`, the compound was classed as inactive.
On to `COc1ccc(-c2csc3nc(-c4ccc(Cl)cc4)oc(=O)c23)cc1`, for which the “activity change, negative = inhibition” value is inactive: 7.53%.
With `CCN(C(=O)CSc1nc2ccccc2c2nc(CCn3c(C)nc4ccccc43)nn12)c1cccc(C)c1`, the “activity change, negative = inhibition” value was inactive: -6.91%.
As for `CCN(CC)S(=O)(=O)c1ccc2c(c1)N(CC(=O)N1CCN(c3cccc(C)c3)C(C)C1)C(=O)CO2` (configuration not stated), the “activity change, negative = inhibition” value was inactive: 1.8%.
As to `COc1cc(C(=O)NC2(C(F)(F)F)C(=O)NC(C)=C2C#N)cc(OC)c1OC` (configuration not stated), the “activity change, negative = inhibition” value is inactive: 6.57%.
As for `CCc1ccc(NC(=O)Cn2c(=O)c3cccn3c3ccccc32)cc1`, the compound was classed as inactive.
Regarding `CCc1cccc(C)c1NC(=O)CN1CCN(Cc2ccccc2Cl)S1(=O)=O`, the “activity change, negative = inhibition” value was inactive: -3.05%.
For the compound `COc1ccc(NC(=O)CSc2nnc(N)s2)cc1`, the “activity change, negative = inhibition” value is inactive: 1.25%.
For the compound `Cn1c(=O)oc2cc(S(=O)(=O)NC(CC(=O)O)c3cccc(Br)c3)ccc21` (configuration not stated), the outcome was inactive.
Turning to `Cc1ccc(Nc2c(-c3ccc(N4CCOCC4)cc3)nc3ccc(C)cn23)cc1`, the “activity change, negative = inhibition” value is inactive: 1.55%.
With `CC(=O)c1ccc(N2CCN(C(=O)Nc3ccc(C)cc3)CC2)cc1`, the “activity change, negative = inhibition” value was inactive: -1.02%.
As to `CCOC(=O)Cn1c(=O)n(CC2CCCO2)c2nc(-c3ccc(OC)cc3OC)nc(C(N)=O)c21` (configuration not stated), the compound was classed as inactive.
Consider `Cc1ccc(CNC(=O)CCCn2c(=O)c3ccccc3n(CC(=O)C(C)(C)C)c2=O)cc1`, for which the “activity change, negative = inhibition” value was inactive: -2.45%.
Take `COc1cc(NC(=O)C(CC(C)C)NS(=O)(=O)c2ccc3c(c2)CCCC(=O)N3)cc(OC)c1` (configuration not stated): the “activity change, negative = inhibition” value is inactive: 7.38%.
As to `Cc1oc2c(c1C(=O)NCc1cccc(Br)c1)C1=NCCN1C=N2`, the “activity change, negative = inhibition” value was inactive: -18.8%.
On to `Cc1cccc(NC(=O)NCCn2c(=O)oc3ccc(C)cc32)c1`, for which the result was inactive.
On to `COc1cccc(NC(=O)c2sc3nc(N4CCOCC4)c4c(c3c2N)CC(C)(C)OC4)c1`, for which the “activity change, negative = inhibition” value was inactive: 18.3%.
For `COc1cccc(CNC(=O)CN2C(=O)N(c3cc(C)ccc3C)S(=O)(=O)c3ccccc32)c1OC`, the outcome was inactive.
In the case of `Cc1ccc(C)c(CN2C(=O)c3ccccc3S(=O)c3ccc(C(=O)NCc4ccccc4Cl)cc32)c1` (configuration not stated), the compound was called inactive.
Consider `COc1cc(C)c(Cl)cc1S(=O)(=O)NCCc1c(C)[nH]c2ccccc12`, for which the “activity change, negative = inhibition” value is inactive: 19.9%.
Take `Cc1ccc(/C=C(\C#N)C(=O)Nc2cc(C)ccc2C)cc1`: the compound was called inactive.
With `Cc1ccc(C)c(N2CCN(C(=O)c3cnc4c(-c5ccccc5)c(C)nn4c3C)CC2)c1`, the “activity change, negative = inhibition” value is inactive: 1.65%.
On to `COc1cccc(NC(=O)Cn2cc(C(=O)C3CCCCC3)c3ccccc32)c1`, for which the “activity change, negative = inhibition” value was inactive: 3.03%.
Regarding `CCOC(=O)c1c(NC(C)=O)c2c3c(sc2n1Cc1nc(-c2ccccc2OCC)oc1C)CCCC3`, the “activity change, negative = inhibition” value was inactive: 9.32%.
For `COc1ccc(CNC(=O)c2cc3c(-c4ccccc4F)nn(C)c3s2)c(OC)c1`, the “activity change, negative = inhibition” value is inactive: -13.7%.
Take `COc1ccccc1N1CCN(C(=O)C2CCN(S(=O)(=O)c3cnc[nH]3)CC2)CC1`: the “activity change, negative = inhibition” value is inactive: 2.3%.
As for `CCOc1ccc(NC(=O)Cn2c(=O)n(-c3ccc(C)cc3)c(=O)c3cc(OC)c(OC)cc32)cc1`, the result was inactive.
In the case of `COc1ccc(CNC(=O)CN(c2ccc(C)cc2)S(=O)(=O)c2c(C)n[nH]c2C)cc1`, the “activity change, negative = inhibition” value was inactive: 1.19%.
As to `COc1ccc2oc(=O)c(-c3csc(/C(C#N)=C/c4ccc(F)cc4)n3)cc2c1`, the “activity change, negative = inhibition” value was inactive: 10.7%.

The record behind these values is PubChem BioAssay AID1963576 (National Center for Advancing Translational Sciences (NCATS), 2024).
